# Results: the supplement of paper PMC10037445
# In all, about 2,900 compounds were measured (“NF-kB SEAP reporter activity, fold change vs agonist alone”: median about 0.99, highest 2% from about 2.6 on). The list shows a part of the results.
# How the values were obtained:
# [1] = system: RAW-Dual; test: NF-kB SEAP reporter activity, fold change vs agonist alone; higher = enhanced NF-kB activity
# How it was run: (§1)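 Reporter activity is given as fold change relative to agonist-alone wells. To measure it, 50 nL of library stock was pin-tooled onto RAW-Dual macrophages (50,000 cells/well, DMEM, 384-well plates), a PRR agonist followed 1 h later, and cells stayed at 37 °C, 5% CO2. Twenty hours on, supernatant was assayed for IRF (QuantiLuc luminescence) and NF-κB (QuantiBlue, 620 nm absorbance), and wells under 70% of agonist-control IncuCyte confluency in both mask sets were marked cytotoxic.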
# [2] = system: RAW-Dual; test: NF-kB SEAP reporter activity, fold change vs agonist alone; cytotoxicity flag (confluency mask): not cytotoxic; higher = enhanced NF-kB activity
# How it was run: as §1
# [3] = system: RAW-Dual; test: NF-kB SEAP reporter activity, fold change vs agonist alone; cytotoxicity flag (confluency mask): cytotoxic (confluency <70% of control); higher = enhanced NF-kB activity
# How it was run: as §1
# [4] = library stock concentration (final ~1000-fold dilution): 10 mM, cytotoxicity flag (confluency mask): not cytotoxic, agonist: Imiquimod (TLR7) […]
# [5] = library stock concentration (final ~1000-fold dilution): 10 mM, cytotoxicity flag (confluency mask): not cytotoxic, agonist: MPLA (TLR4) […]
# [6] = agonist: ODN 1826 (TLR9) 0.5 ug/mL
# [7] = agonist: Pam2CSK4 (TLR2/6) 0.1 ug/mL
# [8] = agonist: Pam3CSK4 (TLR2/1) 0.1 ug/mL
smiles,measurement,setting,value
C/C=C(/C)C(=O)OC1C(OC(C)=O)c2c(ccc3ccc(=O)oc23)OC1(C)C (centres undefined),NF-kB SEAP reporter activity,[1]; [4],0.896
same,NF-kB SEAP reporter activity,[1]; [5],1.23
C/C=C(/C)C(=O)OC1C(OC(C)=O)c2c(ccc3ccc(=O)oc23)OC1(C)C (centres undefined) (library stock concentration (final ~1000-fold dilution): 10 mM),NF-kB SEAP reporter activity,[2]; agonist: LPS (TLR4) 0.1 ug/mL,0.93
same,NF-kB SEAP reporter activity,[2]; [6],0.822
same,NF-kB SEAP reporter activity,[2]; [7],0.562
same,NF-kB SEAP reporter activity,[2]; [8],0.729
CC(=O)Nc1cccc2c1c(Sc1ccc(Cl)cc1)c(C)n2CC(=O)O (library stock concentration (final ~1000-fold dilution): 10 mM),NF-kB SEAP reporter activity,[2]; agonist: LPS (TLR4) 0.1 ug/mL,1.9
same,NF-kB SEAP reporter activity,[2]; [6],0.937
same,NF-kB SEAP reporter activity,[2]; [7],0.971
same,NF-kB SEAP reporter activity,[2]; [8],1.09
CC(=O)Nc1cccc2c1c(Sc1ccc(Cl)cc1)c(C)n2CC(=O)O,NF-kB SEAP reporter activity,[1]; [4],0.95
same,NF-kB SEAP reporter activity,[1]; [5],1.04
O=C(Nc1ccc(OC(F)(F)F)cc1)c1sccc1NCc1ccnc2ccccc12 (library stock concentration (final ~1000-fold dilution): 10 mM),NF-kB SEAP reporter activity,[2]; agonist: LPS (TLR4) 0.1 ug/mL,2.86
CCCCCCCCCCCCCCCCCCOP(=O)([O-])OC1CC[N+](C)(C)CC1,NF-kB SEAP reporter activity,"[1]; library stock concentration (final ~1000-fold dilution): 10 mM water, cytotoxicity flag (confluency mask): not cytotoxic, agonist: Imiquimod (TLR7) […]",1.01
same,NF-kB SEAP reporter activity,"[1]; library stock concentration (final ~1000-fold dilution): 10 mM water, cytotoxicity flag (confluency mask): not cytotoxic, agonist: MPLA (TLR4) […]",1.27
CCCCCCCCCCCCCCCCCCOP(=O)([O-])OC1CC[N+](C)(C)CC1 (library stock concentration (final ~1000-fold dilution): 10 mM water),NF-kB SEAP reporter activity,[2]; agonist: LPS (TLR4) 0.1 ug/mL,1.3
same,NF-kB SEAP reporter activity,[2]; [6],1.42
same,NF-kB SEAP reporter activity,[2]; [7],0.859
same,NF-kB SEAP reporter activity,[2]; [8],1.17
COS(=O)(=O)[O-].C[N+]1(C)CCC(=C(c2ccccc2)c2ccccc2)CC1 (library stock concentration (final ~1000-fold dilution): 10 mM),NF-kB SEAP reporter activity,[2]; agonist: LPS (TLR4) 0.1 ug/mL,0.962
same,NF-kB SEAP reporter activity,[2]; [6],1.05
same,NF-kB SEAP reporter activity,[2]; [7],0.968
same,NF-kB SEAP reporter activity,[2]; [8],1.23
COS(=O)(=O)[O-].C[N+]1(C)CCC(=C(c2ccccc2)c2ccccc2)CC1,NF-kB SEAP reporter activity,[1]; [4],1.05
same,NF-kB SEAP reporter activity,[1]; [5],1.12
COC(=O)C(c1ccccc1Cl)N1CCc2sccc2C1.O=S(=O)(O)O (centres undefined) (library stock concentration (final ~1000-fold dilution): 10 mM),NF-kB SEAP reporter activity,[2]; agonist: LPS (TLR4) 0.1 ug/mL,0.952
same,NF-kB SEAP reporter activity,[2]; [6],0.705
same,NF-kB SEAP reporter activity,[2]; [7],0.949
same,NF-kB SEAP reporter activity,[2]; [8],0.784
COC(=O)C(c1ccccc1Cl)N1CCc2sccc2C1.O=S(=O)(O)O (centres undefined),NF-kB SEAP reporter activity,[1]; [4],0.925
same,NF-kB SEAP reporter activity,[1]; [5],1.1
CCc1cnn2c(NCc3ccc[n+]([O-])c3)cc(N3CCCCC3CCO)nc12 (centres undefined) (library stock concentration (final ~1000-fold dilution): 10 mM),NF-kB SEAP reporter activity,[3]; agonist: LPS (TLR4) 0.1 ug/mL,0.193
same,NF-kB SEAP reporter activity,[3]; [6],0.198
same,NF-kB SEAP reporter activity,[3]; [7],0.0843
same,NF-kB SEAP reporter activity,[3]; [8],0.182
CCc1cnn2c(NCc3ccc[n+]([O-])c3)cc(N3CCCCC3CCO)nc12 (centres undefined),NF-kB SEAP reporter activity,"[1]; library stock concentration (final ~1000-fold dilution): 10 mM, cytotoxicity flag (confluency mask): cytotoxic (confluency <70% of control), agonist: Imiquimod (TLR7) […]",0.308
same,NF-kB SEAP reporter activity,"[1]; library stock concentration (final ~1000-fold dilution): 10 mM, cytotoxicity flag (confluency mask): cytotoxic (confluency <70% of control), agonist: MPLA (TLR4) […]",0.225
COC(=O)c1cc(O)c(O)c(O)c1 (library stock concentration (final ~1000-fold dilution): 10 mM),NF-kB SEAP reporter activity,[2]; agonist: LPS (TLR4) 0.1 ug/mL,0.987
same,NF-kB SEAP reporter activity,[2]; [6],0.772
same,NF-kB SEAP reporter activity,[2]; [7],0.801
same,NF-kB SEAP reporter activity,[2]; [8],0.761
COC(=O)c1cc(O)c(O)c(O)c1,NF-kB SEAP reporter activity,[1]; [4],0.784
same,NF-kB SEAP reporter activity,[1]; [5],1.03
N#Cc1ccc(-c2c(-c3ncn[nH]3)sc(N3CCOCC3)c2C#N)c(F)c1,NF-kB SEAP reporter activity,[1]; [4],0.562
same,NF-kB SEAP reporter activity,[1]; [5],1.94
N#Cc1ccc(-c2c(-c3ncn[nH]3)sc(N3CCOCC3)c2C#N)c(F)c1 (library stock concentration (final ~1000-fold dilution): 10 mM),NF-kB SEAP reporter activity,[2]; agonist: LPS (TLR4) 0.1 ug/mL,2.39
same,NF-kB SEAP reporter activity,[2]; [6],0.443
same,NF-kB SEAP reporter activity,[2]; [7],0.61
same,NF-kB SEAP reporter activity,[2]; [8],1.06
Cc1cccc(CN2CCN(C(c3ccccc3)c3ccc(Cl)cc3)CC2)c1.Cl.Cl (centres undefined),NF-kB SEAP reporter activity,"[1]; library stock concentration (final ~1000-fold dilution): 2 mM, cytotoxicity flag (confluency mask): not cytotoxic, agonist: Imiquimod (TLR7) […]",0.843
same,NF-kB SEAP reporter activity,"[1]; library stock concentration (final ~1000-fold dilution): 2 mM, cytotoxicity flag (confluency mask): not cytotoxic, agonist: MPLA (TLR4) […]",1.15
Cc1cccc(CN2CCN(C(c3ccccc3)c3ccc(Cl)cc3)CC2)c1.Cl.Cl (centres undefined) (library stock concentration (final ~1000-fold dilution): 2 mM),NF-kB SEAP reporter activity,[2]; agonist: LPS (TLR4) 0.1 ug/mL,1.51
same,NF-kB SEAP reporter activity,[2]; [6],0.87
same,NF-kB SEAP reporter activity,[2]; [7],0.931
same,NF-kB SEAP reporter activity,[2]; [8],0.984
Cc1ccc([N+](=O)[O-])cc1S(=O)(=O)N(C)/N=C/c1cnc2ccc(Br)cn12.Cl,NF-kB SEAP reporter activity,"[1]; library stock concentration (final ~1000-fold dilution): 2 mM, cytotoxicity flag (confluency mask): cytotoxic (confluency <70% of control), agonist: Imiquimod (TLR7) […]",0.154
same,NF-kB SEAP reporter activity,"[1]; library stock concentration (final ~1000-fold dilution): 2 mM, cytotoxicity flag (confluency mask): cytotoxic (confluency <70% of control), agonist: MPLA (TLR4) […]",0.267
Cc1ccc([N+](=O)[O-])cc1S(=O)(=O)N(C)/N=C/c1cnc2ccc(Br)cn12.Cl (library stock concentration (final ~1000-fold dilution): 2 mM),NF-kB SEAP reporter activity,[3]; agonist: LPS (TLR4) 0.1 ug/mL,0.339
same,NF-kB SEAP reporter activity,[3]; [6],0.208
same,NF-kB SEAP reporter activity,[3]; [7],0.0736
same,NF-kB SEAP reporter activity,[3]; [8],0.177
CC(C)CC(NC(=O)C(NC(=O)c1cccc(-c2ccccc2)n1)C(C)O)B(O)O (centres undefined),NF-kB SEAP reporter activity,[1]; [4],2.29
same,NF-kB SEAP reporter activity,[1]; [5],0.997
CC(C)CC(NC(=O)C(NC(=O)c1cccc(-c2ccccc2)n1)C(C)O)B(O)O (centres undefined) (library stock concentration (final ~1000-fold dilution): 10 mM),NF-kB SEAP reporter activity,[2]; agonist: LPS (TLR4) 0.1 ug/mL,0.629
same,NF-kB SEAP reporter activity,[2]; [6],1.53
same,NF-kB SEAP reporter activity,[2]; [7],0.976
same,NF-kB SEAP reporter activity,[2]; [8],0.594
COC(=O)CC1CC(c2ccc(O)cc2)=NO1 (centres undefined),NF-kB SEAP reporter activity,[1]; [4],0.963
same,NF-kB SEAP reporter activity,[1]; [5],1.05
COC(=O)CC1CC(c2ccc(O)cc2)=NO1 (centres undefined) (library stock concentration (final ~1000-fold dilution): 10 mM),NF-kB SEAP reporter activity,[2]; agonist: LPS (TLR4) 0.1 ug/mL,1.1
same,NF-kB SEAP reporter activity,[2]; [6],0.966
same,NF-kB SEAP reporter activity,[2]; [7],0.999
same,NF-kB SEAP reporter activity,[2]; [8],0.998
COc1ccc(S(=O)(=O)N(CCO)c2ccccc2CN(C)CC=Cc2ccc(Cl)cc2)cc1,NF-kB SEAP reporter activity,[1]; [4],0.802
same,NF-kB SEAP reporter activity,[1]; [5],1.07
COc1ccc(S(=O)(=O)N(CCO)c2ccccc2CN(C)CC=Cc2ccc(Cl)cc2)cc1 (library stock concentration (final ~1000-fold dilution): 10 mM),NF-kB SEAP reporter activity,[2]; agonist: LPS (TLR4) 0.1 ug/mL,0.958
same,NF-kB SEAP reporter activity,[2]; [6],0.257
same,NF-kB SEAP reporter activity,[2]; [7],0.537
same,NF-kB SEAP reporter activity,[2]; [8],0.372
